# Data published in the supplement of paper PMC8728848.
# Some of the results follow.
# B1: DrGal9 (Danio rerio) (protein)
# chain: MAFYQQPPYYNPRIPFSGPIQGGLQDGKSIIISGRVLPGANRFHVNLQCGSHSEANVALHFNPRYEDTDYVVNNSYLNRTWGSEERKYESPFAQGQTFTLQILVAQDKYKISTNGRHFMDYKHRIPFTQVDTVAVEGMVEVNSVAFQNPAGFIPPQAGYAPQYAVPPGCGFPAFPSAPNYTIPHKTVMNGGLHPGKNIVINGVVNPNAKSIIFNLCYRSGIAFHYNPRFDENVVVRNTNQMEKWGAEERFGGLPFHKGQPFQVTISCNPQHYNVFVNGKQEHTYKHRYTKLNDIDILEICGDLQLTSVQA
# What was measured:
# Assay in all cases: glycan array binding signal (z-score within array); higher = stronger binding
# Details in all cases: glycan notation: IUPAC condensed, linker removed
# [1] = target: Neu5Ac(a2-3)Gal(b1-4)GlcNAc(b1-3)GalNAc
# Procedure, shortened: (§1)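 Columns mapping to the same glycan were averaged after glycan names were converted to IUPAC-condensed notation. The data come from 3228 arrays in the Consortium for Functional Glycomics database, limited to those with an available protein sequence. Binding is reported as a within-array Z-score averaged across arrays of one protein sequence and across linkers.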
# [2] = target: Neu5Ac(a2-3)Gal(b1-4)GlcNAc(b1-3)[Neu5Ac(a2-3)Gal(b1-4)GlcNAc(b1-6)]GalNAc
# Procedure, shortened: as §1
# [3] = target: Neu5Ac(a2-3)Gal(b1-4)GlcNAc(b1-6)GalNAc
# Procedure, shortened: as §1
# [4] = target: Neu5Ac(a2-3)Gal(b1-4)GlcNAc(b1-6)[Gal(b1-3)]GalNAc
# Procedure, shortened: as §1
# [5] = target: Neu5Ac(a2-3)Gal(b1-4)GlcNAc(b1-6)[Neu5Ac(a2-3)Gal(b1-3)]GalNAc
# Procedure, shortened: as §1
# [6] = target: Neu5Ac(a2-3)Gal(b1-4)GlcNAc6S
# Procedure, shortened: as §1
# [7] = target: Neu5Ac(a2-3)Gal(b1-4)[Fuc(a1-3)]GlcNAc
# Procedure, shortened: as §1
# [8] = target: Neu5Ac(a2-3)Gal(b1-4)[Fuc(a1-3)]GlcNAc(b1-2)Man
# Procedure, shortened: as §1
# [9] = target: Neu5Ac(a2-3)Gal(b1-4)[Fuc(a1-3)]GlcNAc(b1-3)Gal
# Procedure, shortened: as §1
# [10] = target: Neu5Ac(a2-3)Gal(b1-4)[Fuc(a1-3)]GlcNAc(b1-3)Gal(b1-4)GlcNAc
# Procedure, shortened: as §1
# [11] = target: Neu5Ac(a2-3)Gal(b1-4)[Fuc(a1-3)]GlcNAc(b1-3)Gal(b1-4)[Fuc(a1-3)]GlcNAc(b1-3)Gal(b1-4)[Fuc(a1-3)]GlcNAc
# Procedure, shortened: as §1
# [12] = target: Neu5Ac(a2-3)Gal(b1-4)[Fuc(a1-3)]GlcNAc(b1-3)GalNAc
# Procedure, shortened: as §1
# [13] = target: Neu5Ac(a2-3)Gal(b1-4)[Fuc(a1-3)]GlcNAc(b1-6)[Gal(b1-3)]GalNAc
# Procedure, shortened: as §1
# [14] = target: Neu5Ac(a2-3)Gal(b1-4)[Fuc(a1-3)]GlcNAc(b1-6)[Neu5Ac(a2-3)Gal(b1-3)]GalNAc
# Procedure, shortened: as §1
# [15] = target: Neu5Ac(a2-3)Gal(b1-4)[Fuc(a1-3)]GlcNAc6S
# Procedure, shortened: as §1
# [16] = target: Neu5Ac(a2-3)Gal6S(b1-4)GlcNAc
# Procedure, shortened: as §1
# [17] = target: Neu5Ac(a2-3)Gal6S(b1-4)[Fuc(a1-3)]GlcNAc
# Procedure, shortened: as §1
# [18] = target: Neu5Ac(a2-3)GalNAc
# Procedure, shortened: as §1
# [19] = target: Neu5Ac(a2-3)GalNAc(b1-4)GlcNAc
# Procedure, shortened: as §1
# [20] = target: Neu5Ac(a2-3)[GalNAc(b1-4)]Gal(b1-4)Glc
# Procedure, shortened: as §1
# [21] = target: Neu5Ac(a2-3)[GalNAc(b1-4)]Gal(b1-4)GlcNAc
# Procedure, shortened: as §1
# [22] = target: Neu5Ac(a2-3)[GalNAc(b1-4)]Gal(b1-4)GlcNAc(b1-3)GalNAc
# Procedure, shortened: as §1
# [23] = target: Neu5Ac(a2-3)[Neu5Ac(a2-6)]GalNAc
# Procedure, shortened: as §1
# [24] = target: Neu5Ac(a2-6)Gal
# Procedure, shortened: as §1
# [25] = target: Neu5Ac(a2-6)Gal(b1-3)GlcNAc(b1-3)[Gal(b1-4)GlcNAc(b1-6)]Gal(b1-4)Glc
# Procedure, shortened: as §1
# [26] = target: Neu5Ac(a2-6)Gal(b1-4)Glc
# Procedure, shortened: as §1
# [27] = target: Neu5Ac(a2-6)Gal(b1-4)GlcNAc
# Procedure, shortened: as §1
# [28] = target: Neu5Ac(a2-6)Gal(b1-4)GlcNAc(b1-2)Man
# Procedure, shortened: as §1
# [29] = target: Neu5Ac(a2-6)Gal(b1-4)GlcNAc(b1-2)Man(a1-3)Man(b1-4)GlcNAc(b1-4)GlcNAc
# Procedure, shortened: as §1
# [30] = target: Neu5Ac(a2-6)Gal(b1-4)GlcNAc(b1-2)Man(a1-3)[Gal(b1-4)GlcNAc(b1-2)Man(a1-6)]Man(b1-4)GlcNAc(b1-4)GlcNAc
# Procedure, shortened: as §1
# [31] = target: Neu5Ac(a2-6)Gal(b1-4)GlcNAc(b1-2)Man(a1-3)[GlcNAc(b1-2)Man(a1-6)]Man(b1-4)GlcNAc(b1-4)GlcNAc
# Procedure, shortened: as §1
binder,measurement,setting,value
B1,glycan array binding signal (z-score),[1],-0.302
same,glycan array binding signal (z-score),[2],0.008
same,glycan array binding signal (z-score),[3],-0.352
same,glycan array binding signal (z-score),[4],-0.135
same,glycan array binding signal (z-score),[5],-0.386
same,glycan array binding signal (z-score),[6],0.142
same,glycan array binding signal (z-score),[7],-0.413
same,glycan array binding signal (z-score),[8],-0.414
same,glycan array binding signal (z-score),[9],-0.411
same,glycan array binding signal (z-score),[10],-0.356
same,glycan array binding signal (z-score),[11],-0.384
same,glycan array binding signal (z-score),[12],-0.288
same,glycan array binding signal (z-score),[13],-0.38
same,glycan array binding signal (z-score),[14],-0.39
same,glycan array binding signal (z-score),[15],-0.387
same,glycan array binding signal (z-score),[16],-0.389
same,glycan array binding signal (z-score),[17],-0.413
same,glycan array binding signal (z-score),[18],-0.376
same,glycan array binding signal (z-score),[19],-0.365
same,glycan array binding signal (z-score),[20],-0.402
same,glycan array binding signal (z-score),[21],-0.395
same,glycan array binding signal (z-score),[22],-0.374
same,glycan array binding signal (z-score),[23],-0.395
same,glycan array binding signal (z-score),[24],-0.381
same,glycan array binding signal (z-score),[25],-0.364
same,glycan array binding signal (z-score),[26],-0.297
same,glycan array binding signal (z-score),[27],-0.374
same,glycan array binding signal (z-score),[28],-0.383
same,glycan array binding signal (z-score),[29],-0.395
same,glycan array binding signal (z-score),[30],0.114
same,glycan array binding signal (z-score),[31],-0.541
